Results reported in the supplement of paper PMC8183993.
Several values for one entry are separate records, joined by “and”; a condition that tells them apart may be missing. Equal values may be shown once. Where a name gives a salt, the structure may show the parent alone. ± gives the standard deviation of the averaged measurements. In all, about 3,200 compounds were measured (“nuclei count (viability) relative to DMSO”: median about 99, lowest 2% from about 16 on). This is one part of the list.

The compounds below were run on U2OS (assay: nuclei count (viability) relative to DMSO (% of DMSO); higher = more viable cells). Settings: 10 µM; 24 h.
Protocol: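 Primary image-based screen in U2OS cells: compounds at 10 uM for 24 h, then a 1 h o-propargyl-puromycin (OPP) pulse, click labelling, and high-throughput microscopy. Mean cytoplasmic OPP intensity and nuclei count were normalised to DMSO wells within each plate (DMSO = 100) and averaged over triplicate plates.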
`CC(C)(O)c1ccccc1CC[C@@H](SCC1(CC(=O)O)CC1)c1cccc(/C=C/c2ccc3ccc(Cl)cc3n2)c1` [Montelukast] showed a nuclei count of 109.
`O=C1NC(=O)C(c2ccccc2)(c2ccccc2)N1` [Phenytoin] was tested, and the nuclei count was 103.
`O=C1NC(=O)C(=Cc2ccc(-c3ccc(F)cc3)o2)S1` (stereo in doubt) was tested, and the nuclei count was 98.6 ± 3.4.
With `CN1Cc2c(N)cccc2C(c2ccccc2)C1` (stereo unspecified) [Nomifensine maleate] the nuclei count was 102.
For `CN(C)C/C=C/C(=O)Nc1cc2c(Nc3ccc(F)c(Cl)c3)ncnc2cc1O[C@H]1CCOC1` [Afatinib (BIBW2992)], the nuclei count was 33.1.
Compound `OC[C@@H](O)[C@@H](O)[C@@H](O)CO` [Ribitol (Adonitol)] has a nuclei count of 105.
Work on `O=C(Nc1ccccc1)Nc1ccc(-c2ccc(C(=O)[C@@H]3CCC[C@H]3C(=O)O)cc2)cc1` yielded a nuclei count of 100.
`c1ccc(CNc2ncnc3nc[nH]c23)cc1` [Aminopurine, 6-benzyl] was tested, and the nuclei count was 104.
With `COC(=O)Nc1nc2cc([S+]([O-])c3ccccc3)ccc2[nH]1` (stereo unspecified) [Oxfendazol] the nuclei count was 77.2.
In the case of `COC(=O)Nc1nc2cc([S+]([O-])c3ccccc3)ccc2[nH]1` (stereo unspecified) [Oxfendazole], the nuclei count is reported as 82.4.
With `NC1CCN(c2nc3c(cc2F)c(=O)c(C(=O)O)cn3-c2ccc(F)cc2F)C1` (stereo unspecified) [Tosufloxacin hydrochloride] the nuclei count was 92.
Work on `COc1ccccc1OCC(O)COC(N)=O` (stereo unspecified) [Methocarbamol] yielded a nuclei count of 102.
In the case of `Cc1cc(N)c2ccccc2[n+]1CCCCCCCCCC[n+]1c(C)cc(N)c2ccccc21` [Dequalinium dichloride], the nuclei count is reported as 98.5.
In the case of `Nc1ccn([C@@H]2CS[C@H](CO)O2)c(=O)n1` [Lamivudine], the nuclei count is reported as 96.6.
Compound `Clc1cccc2c1CN(C1=NCCN1)C2` has a nuclei count of 98.5.
Work on `O=C(/C=C/c1c(C(=O)O)[nH]c2cc(Cl)cc(Cl)c12)Nc1ccccc1` [Gavestinel] yielded a nuclei count of 93.2.
Compound `Cn1ccc2cc3c(cc21)CCN3C(=O)Nc1cccnc1` has a nuclei count of 102.
For `N#Cc1c(NC(=O)c2cccc3ccccc23)sc2c1CCCC2` [JNK inhibitor IX], the nuclei count was 27.9.
In the case of `C=CC(=O)Nc1cccc(Nc2nc(Nc3ccc(OCCOC)cc3)ncc2F)c1`, the nuclei count is reported as 34.7.
For `CCC(=O)Nc1cccc(Oc2nc(Nc3ccc(N4CCN(C)CC4)cc3OC)ncc2Cl)c1`, the nuclei count was 94.6.
`C#C[C@]1(O)CC[C@H]2[C@@H]3CCC4=CC(=O)CC[C@@H]4[C@H]3CC[C@@]21CC` [Norgestrel-(-)-D] gave a nuclei count of 99.
Compound `C#C[C@]1(O)CC[C@H]2[C@@H]3CCC4=CC(=O)CC[C@@H]4[C@H]3CC[C@@]21CC` [Levonorgestrel (Levonelle)] has a nuclei count of 101.
Compound `N=C(N)NCCN1CCCCCCC1` [Guanethidine sulfate] has a nuclei count of 103.
In the case of `N#C/C(=C\c1ccc(O)c(O)c1)C(=O)NCc1ccccc1`, the nuclei count is reported as 102 and 98.5.
Work on `CC1(C)[C@@H](OC(=O)CCC(=O)O)CC[C@]2(C)[C@H]3C(=O)C=C4[C@@H]5C[C@@](C)(C(=O)O)CC[C@]5(C)CC[C@@]4(C)[C@]3(C)CC[C@@H]12` [Carbenoxolone disodium salt] yielded a nuclei count of 94.8.
`CC(CN(C)C)CN1c2ccccc2Sc2ccccc21` (stereo unspecified) [Trimeprazine tartrate] showed a nuclei count of 105.
Compound `Oc1cccc(-c2nc(N3CCOCC3)c3oc4ncccc4c3n2)c1` has a nuclei count of 78.4 ± 1.2.
Compound `C[C@@H]1COC(Nc2ccc3ncnc(Nc4ccc(OCc5nccs5)c(Cl)c4)c3c2)=N1` has a nuclei count of 97.4 ± 1.9.
`O=C(/C=C/c1ccc(O)c(O)c1)O[C@@H]1C[C@](O)(C(=O)O)C[C@@H](O)[C@H]1O` [Chlorogenic acid] gave a nuclei count of 107.
With `C=CCOC(Cn1ccnc1)c1ccc(Cl)cc1Cl` (stereo unspecified) [Enilconazole] the nuclei count was 108.
Compound `C[C@]1(Cn2ccnn2)[C@H](C(=O)O)N2C(=O)C[C@H]2S1(=O)=O` [Tazobactam] has a nuclei count of 94.4 ± 10.
For `CC(CN(C)C)C(C)(O)Cc1ccc(Cl)cc1` (stereo unspecified) [Clobutinol hydrochloride], the nuclei count was 97.1.
With `CCN(CC)CCCCNc1ncc2cc(-c3cc(OC)cc(OC)c3)c(NC(=O)NC(C)(C)C)nc2n1` the nuclei count was 60.2 ± 12.
`CC[C@@H](CO)NCCN[C@@H](CC)CO` [Ethambutol dihydrochloride] showed a nuclei count of 99.3.
`CC[C@@H](CO)NCCN[C@@H](CC)CO` [Ethambutol HCl] showed a nuclei count of 97.2.
`CC1=C(/C=C/C(=C/C=C/C(C)=C/C(=O)O)c2ccc(C)cc2)C(C)(C)CCC1` gave a nuclei count of 96.4.
Work on `O=C(NCCN1CCCCC1)c1ccc(I)cc1` [N-[2-(Piperidinylamino)ethyl]-4-iodobenzamide] yielded a nuclei count of 103.
For `CC(C)C[C@H](NC(=O)CNC(=O)c1cc(Cl)ccc1Cl)B1OC(=O)C(CC(=O)O)(CC(=O)O)O1`, the nuclei count was 11.6.
`CC(=O)OCC(=O)[C@@]1(OC(C)=O)[C@@H](C)C[C@H]2[C@@H]3C[C@H](F)C4=CC(=O)C=C[C@]4(C)[C@@]3(F)[C@@H](O)C[C@@]21C` [Diflorasone Diacetate] was tested, and the nuclei count was 105.
`CC1=C(/C=C/C(C)=C\C=C\C(C)=C\C(=O)O)C(C)(C)CCC1` [9-cis Retinoic acid] gave a nuclei count of 81.7.
`CCCOc1ccc(C(=O)OCCN(CC)CC)cc1N` [Proparacaine hydrochloride] was tested, and the nuclei count was 99.6.
`CC(=O)N[C@@H](CSCC=C(C)CCC=C(C)CCC=C(C)C)C(=O)O` [Acetyl-S-farnesyl-L-cysteine] showed a nuclei count of 84.8.
`COC(=O)Nc1ccc2[nH]cc(CCNC(C)=O)c2c1` showed a nuclei count of 96.2.
Compound `CCCCCCCCCCCCCCCC(=O)C1=C(O)[C@@H](CO)OC1=O` has a nuclei count of 95.2.
In the case of `Cc1cc(C)c(S(=O)(=O)Nc2cccc(C(F)(F)F)c2)c(C)c1`, the nuclei count is reported as 104.
In the case of `NC(=O)c1cccc(N)c1` [3-Aminobenzamide], the nuclei count is reported as 102.
For `Cc1ccc(-n2nc(C(C)(C)C)cc2NC(=O)Nc2ccc(OCCN3CCOCC3)c3ccccc23)cc1` [BIRB 796 (Doramapimod)], the nuclei count was 94.7.
`C=CCSCC1Nc2cc(Cl)c(S(N)(=O)=O)cc2S(=O)(=O)N1` (stereo unspecified) [Althiazide] showed a nuclei count of 91.1.
With `CNC(=O)c1ccc(C)c(-n2c(C)cc(OCc3ccc(F)cc3F)c(Br)c2=O)c1` the nuclei count was 97.2.
`CN(C)CC/C=C1/c2ccccc2COc2ccc(CC(=O)O)cc21` [Olopatadine hydrochloride] gave a nuclei count of 104.
In the case of `c1nc(CC2CCNCC2)c[nH]1` [Immepip dihydrobromide], the nuclei count is reported as 103.
